Experimental data from PubChem BioAssay (NCI).
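Five compound concentrations were applied to cells in 96-well plates for 48 hours; endpoints were derived by simple linear interpolation of the resulting dose-response curve. The concentration for 50% growth inhibition is given as GI50. At the TGI there is no net growth.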

test system: NCI-H322M lung; test: NCI-60 cell line screen, 48 h

SMILES	TGI [µM]	GI50 [µM]
CC1(C)COC(c2cccc(C3=NC(C)(C)CO3)c2)=N1	> 100	
Cc1cc2nc3c(C#N)c(-c4ccccc4)/c(=C\Nc4cccc(C(F)(F)F)c4)c(=O)n3c2cc1C	> 100	
O=C1NC(=NCCc2ccccc2Cl)S/C1=C\c1ccc2ncccc2c1	> 22	5.06
NS(=O)(=O)c1ccc(-n2nc(-c3ccc(Cl)cc3)cc2C2=CC(=O)C=CC2=O)cc1	56.4	17.7
CCOc1ccc2c(c1)/C(=C\C=C\C1CC(C)C3CC(OCC)CCC3N1CC)CC(C)N2CC (stereo not given)	3.53	1.52
O=C(Nc1ccccc1Cl)c1ccc(NC2=C(Cl)C(=O)N(Cc3ccccc3)C2=O)cc1	> 100	> 100
CC(C)(C)c1ccccc1NS(=O)(=O)c1ccccc1	> 100	
N#Cc1nn(-c2ccc(Cl)cc2)c(N)c2c(=N)n3nc(-c4ccccc4)cc3nc12	> 100	
CCCCCCCCCCCCC(Br)C(=O)SCCNC(=O)CCNC(=O)[C@@H](O)C(C)(C)COP(=O)(O)OP(=O)(O)OCC1OC(n2cnc3c(N)ncnc32)C(O)C1OP(=O)(O)O (stereo not given in full)	> 56.5	
O=C(CC1C(=O)Nc2ccccc2S1=O)Nc1cccc(Cl)c1 (stereo not given)	97.8	
N#CC(C#N)=C1NC(=O)C(c2ccccc2)C(=O)N1 (stereo not given)	> 100	
CN(C)/[N+]([O-])=N/Oc1cc(Nc2ccc(C(=O)O)cc2)c([N+](=O)[O-])cc1[N+](=O)[O-]	24.6	10.8
O=C(O)CCCN1CCCCC1	> 100	
C[Si](C)(C)C#C[I+]c1ccccc1	> 100	
CC(=O)OC1COC(N2C(=O)C(=O)c3cc(Br)c([N+](=O)[O-])cc32)C(OC(C)=O)C1OC(C)=O (stereo not given)	> 100	
Cn1c2ccccc2c2c3c(c4c5ccccc5n(CCCCCC#N)c4c21)C(=O)N(O)C3=O	10.3	2.65
C=C1C(=O)O[C@H]2C1C[C@@H](O)[C@@]1(C)OC1CC[C@@]1(C)O[C@H]21 (stereo not given in full)	79.1	
O=C(CCN1CCCC1)Nc1ccc2c(NCCCCc3ccccc3)c3ccccc3nc2c1	2.36	1.15
Cn1cc(C(=O)C2CCCCC2)ccc1=O	> 100	
NC12c3c4cccc3Oc3cccc(c31)Oc1cccc(c12)O4	> 50	
CC(=O)Nc1ccc(C(=O)N[C@@H]2C(=O)N3[C@@H]2SC(C)(C)[C@@H]3C(=O)O)cn1	> 100	
CC(=O)c1nc2ccccc2n1CC(=O)c1ccc([N+](=O)[O-])cc1	> 100	
COc1ccc(Cc2ccccc2C(=O)O)c2ccccc12	> 100	

SMILES	TGI [µM]	GI50 [µM]
NC(=O)NC(=O)CI	> 56.6	> 42
Cn1c(=O)c(Cc2ccc(F)cc2F)cc2cnc(NC3CCOCC3)nc21	> 25	> 25
CCCCN(CCCC)CC(=O)c1ccc2cc(Cl)c3ccccc3c2c1	> 100	
COc1cc(O)c(C(=O)/C=C/c2ccc(O)cc2)cc1Oc1ccc(C(=O)/C=C/c2ccc(O)cc2)c(O)c1	9.37	
Cc1ccccc1NC(=O)c1[nH]c(=S)nc(N)c1-c1ccccc1C	> 100	
COc1cc(-c2ccc(-c3ccc(C(=N)N)s3)s2)cc(OC)c1OC	6.51	2.38
CCOC(=O)Nc1ccc(S(=O)(=O)Nc2ccc(Br)cc2)cc1	> 100	
c1ccc(/C(=N/Nc2cnccn2)c2ncccn2)cc1	> 100	
CC1(C)OC1CC/C(=C/CBr)CBr (stereo not given)	41.6	
CC(C)(C)c1cc(C(O)(C(F)(F)F)C(F)(F)F)c2c(c1)C(C(F)(F)F)(C(F)(F)F)OC(c1ccccc1)(C(C)(C)C)N2 (stereo not given)	40.2	
S=C1c2cc(Cl)ccc2NC(=NC2CCCC2)C2CSCN12 (stereo not given)	> 100	
CC(C)(C)CC(C)(C)Cc1ccc(OCCOCC[N+](C)(C)Cc2ccccc2)cc1	17.4	3.91
NC(=O)c1cc2ccccc2c(N=Nc2ccccc2)c1O	> 100	
CC(C)(C)c1ccc(-c2nnc(SCc3ccc(Cl)cc3)n2-c2cccc(C(F)(F)F)c2)cc1	> 100	
C(=N\NC1=NCCCN1)/c1ccc(-c2cn3cc(/C=N/NC4=NCCCN4)ccc3n2)cc1	> 100	
CCOC(=O)c1c(OCC)[nH]c(=O)c(C(c2ccc(F)cc2)c2c(O)c(C(=O)OCC)c(OCC)[nH]c2=O)c1O	60.8	
COC(=O)c1c(C)nc(C)c(N=O)c1-c1ccccc1C(F)(F)F	> 100	
N#C/C(=C/N1CCN(C(=O)c2ccco2)C1=S)C(N)=O	75.1	17.6
Cc1ccc(S(=O)(=O)OC2CN3CCC2CC3)cc1 (stereo not given)	> 100	
COc1ccc(/C=C(/C(=O)N2CCNCC2)c2cc(OC)c(OC)c(OC)c2)cc1O	> 100	7.48
Cn1cccc1-c1cc(-c2ccc(Br)cc2)nc(N)c1C#N	> 100	> 100
CC1CCN(c2nnc(Cl)cc2C(=O)c2ccccc2)CC1	> 100	
Cc1c2cc[n+](C)cc2c(COC2OC(CO)C(O)C2O)c2c3ccccc3n(C)c12 (stereo not given)	> 100	
